Measured values published in PubChem BioAssay AID1346428 (National Center for Advancing Translational Sciences (NCATS), 2018).
About 1,200 (2.5%) of roughly 48,000 compounds were called active. Roughly 2% stayed inconclusive and do not appear here.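 Rule for the calls: active = activation of at least 60% and not above a set upper limit (about 1 call in 100 departs from these limits); inconclusive = activation of 40% to 60%, or above that upper limit; inactive = activation under 40%.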 The list shows a part of the results.

target: Probable G-protein coupled receptor 32 (Homo sapiens) (UniProt O75388); assay: qHTS for Agonists of Human Resolvin D1 Receptor DRV1; details: CHO-K1 GPR32 beta-arrestin PathHunter luminescence, 90 min; at 76.9 µM; active compounds read high; zero percent set by DMSO-only wells; note: 0% is about no effect
Sequence of UniProt O75388 (O75388 whole entry, looked up, the tested form may be a part): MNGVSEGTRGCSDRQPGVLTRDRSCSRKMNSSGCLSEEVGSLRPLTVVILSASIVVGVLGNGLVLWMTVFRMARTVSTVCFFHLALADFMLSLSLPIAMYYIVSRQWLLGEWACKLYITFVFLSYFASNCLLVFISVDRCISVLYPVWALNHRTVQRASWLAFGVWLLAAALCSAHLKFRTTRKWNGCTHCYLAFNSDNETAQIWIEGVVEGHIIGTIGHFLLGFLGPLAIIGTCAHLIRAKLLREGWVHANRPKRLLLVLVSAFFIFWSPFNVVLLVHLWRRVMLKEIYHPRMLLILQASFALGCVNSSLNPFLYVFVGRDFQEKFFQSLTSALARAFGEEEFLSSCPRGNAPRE
Method in brief: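 GPR32 activation in stably transfected CHO-K1 cells, detected as beta-arrestin recruitment by enzyme-fragment complementation. Compound exposure: 90 min, 37 °C.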

activation, inactive:
CCc1nn(-c2ccccc2)c2nc(-c3ccccc3OC)c3cc(OC)c(OC)cc3c12 -5.26%
CCOC(=O)c1scc(-c2ccccc2)c1S(=O)(=O)Nc1ccccc1F -64.2%
Clc1cccc(N2CCN(c3ncnc4c3nc3n4CCCCC3)CC2)c1 32.4%
CCCc1nn2c(=O)cc(COC(=O)c3cccc(NC(=O)COc4ccc(F)cc4)c3)nc2s1 -18.7%
CCCCN1C(=O)c2[nH]nc(-c3ccccc3O)c2C1c1cccc(OCc2ccccc2)c1 (configuration not stated) 20.7%
O=C(Cn1c(=O)oc2cc(S(=O)(=O)N3CCCCC3)ccc21)Nc1cccc(Cl)c1 35.6%
O=C(O)c1cc(NC2(c3ccccc3)C(=O)c3ccccc3C2=O)ccc1Cl -17.8%
Cc1cc(C)c(Cn2c3ccccc3c3cnn(CC(=O)NC4CCC(C)CC4)c(=O)c32)c(C)c1 (configuration not stated) -14.9%
CC1(C)CCC(NC(=O)[C@@H](N)CCC(=O)O)CC1 -4.86%
Cc1nc(-c2ccc(Cl)cc2)sc1CCNC(=O)C(=O)Nc1ccc(F)cc1F 8.19%
Cc1ccccc1NC(=O)c1ccc(F)c(S(=O)(=O)N(C)Cc2ccccc2)c1 -10.1%
COc1ccc(NC(=O)CSc2cn(CC(=O)N3CCOCC3)c3ccccc23)cc1OC -1.74%
COc1cccc(N2CCN(C(=O)c3ccc4c(=O)n(CCc5ccccc5)c(=O)[nH]c4c3)CC2)c1 20.2%
Cc1c(CC(=O)NCCc2ccccc2F)c(=O)oc2c(C)c3occ(C(C)(C)C)c3cc12 -22.5%
CC(C)COC(=O)/C(C#N)=C\c1ccc(-c2ccccc2Cl)o1 -4.22%
COc1ccccc1CNS(=O)(=O)c1cc(C(=O)Nc2cccc(C(F)(F)F)c2)ccc1F 15.4%
Cc1ccc(Cl)c2c1N[C@@H](c1ccc(C(=O)O)cc1)[C@H]1CC=C[C@@H]21 -14.4%
Cc1cccc(OCC(=O)Nc2c(C)ccc3nsnc23)c1C 36.4%
CCc1ccc(S(=O)(=O)c2nnn3c2nc(N2CCC(C)CC2)c2cc(Cl)ccc23)cc1 -22.4%
COc1ccc(-c2cc(C(=O)NCc3cc(OC)c(OC)c(OC)c3)[nH]n2)cc1 -1.24%
O=C(Nc1ccccc1)C(Cc1ccccc1)N1Cc2ccccc2C1=O (configuration not stated) -8.69%
CCOc1ccc(-c2nc(CSCC(=O)N3CCN(c4cccc(C(F)(F)F)c4)CC3)c(C)o2)cc1 -25.5%
O=C(CSc1ncc(S(=O)(=O)c2ccc(Br)cc2)c(=O)[nH]1)NCc1ccc(Cl)cc1 1.33%
Cc1ccc(C)c(NC(=O)CCN2C(=O)c3ccccc3Sc3ncccc32)c1 -15.1%
COc1ccc(C2=NS(=O)(=O)N(C)C(C(=O)Nc3cc(C)ccc3O)=C2)cc1OC 2.54%
COc1cccc(N2CCN(S(=O)(=O)c3cc(Br)cc4c3N(C(=O)C3CC3)CC4)CC2)c1 20.2%
Cc1nc(N2C(=O)c3oc4ccccc4c(=O)c3C2c2ccccc2F)sc1C (configuration not stated) -1.38%
CN1CCN(C(CNC(=O)C(=O)Nc2ccccc2)c2ccc3c(c2)OCO3)CC1 (configuration not stated) 4.23%
Cc1cccc(N2C(=O)CSC23C(=O)N(Cc2cccc(F)c2)c2ccccc23)c1 (configuration not stated) -20.6%
Cc1ccc(C)c(CSc2nc3ncccc3[nH]2)c1 -0.461%
Cc1cccc(-c2noc(CN(C(=O)COc3ccc(C(C)C)cc3)C(C)C)n2)c1 5.27%
CCOC(=O)c1c(C)n(-c2ccccc2)c2ccc(OC(=O)c3ccccc3)cc12 -32.8%
Cc1ccc2c(c1)-c1nc(-c3ccc(Cl)cc3)cc(-c3coc4ccccc4c3=O)c1CO2 -6.95%
O=C(Nc1ccc2oc(-c3ccccc3F)nc2c1)c1ccccc1Cl 12.8%
Cc1cccc(CSc2ncc(CO)n2Cc2ccc(F)cc2)c1 12.6%
COc1ccc(NC(=O)CSc2ncc3c(n2)-c2cc(Cl)ccc2N(Cc2ccccc2F)S3(=O)=O)cc1 -10.7%
CCCSc1ncc(Cl)c(C(=O)Nc2ccc(S(=O)(=O)Nc3ncccn3)cc2)n1 -9.78%
Cc1cc(C)c2c(=O)cc(C(=O)Nc3sc4c(c3C(=O)NCc3ccccc3)CCCC4)oc2c1 -15.2%
Fc1ccc(-n2ncc3c(NCCCN4CCOCC4)ncnc32)cc1 9.18%
COC(=O)c1cc(S(=O)(=O)NCC2CCN(Cc3ccc(F)cc3)CC2)cn1C -11.1%
O=C(Nc1ccc2nc(SCC(=O)N3CCCc4ccccc43)sc2c1)c1cccc(F)c1 -16.1%
COc1cc(-c2nnc(SCCOc3ccc(Cl)cc3C)o2)cc(OC)c1OC 1.22%
CCOC(=O)c1c(NC(=O)CSc2cn(CCNC(=O)c3ccccc3F)c3ccccc23)sc2c1CCC2 -4.47%
Cc1ccc2c(c1)N(CCC(=O)NCc1ccc(F)cc1)C(=O)CO2 -12.1%
COc1cccc(CNC(=O)c2ccc(CSc3nc4ccncc4n3Cc3cccc(C)c3)cc2)c1 -2.47%
Cc1ccc(Cl)cc1N1CCN(S(=O)(=O)c2ccc3[nH]c4c(c3c2)CCCCC4)CC1 -7.46%
COc1cc(NC(=O)CCc2c(C)nn(-c3ccc4nncn4n3)c2C)cc(OC)c1OC -7.23%
CCOCCc1nn2c(=O)cc(COC(=O)CNC(=O)c3ccc(C(C)(C)C)cc3)nc2s1 7.73%
Oc1c(C(c2ccccc2)N2CCN(c3cccc(Cl)c3)CC2)sc2nc(-c3ccco3)nn12 (configuration not stated) -8.38%
Cc1ccc(CSc2ncc(Cl)c(C(=O)Nc3nc4ccc(C)cc4s3)n2)cc1 -3.21%
O=C(NCc1ccc(F)cc1)c1ccc(CS(=O)Cc2ccc(Cl)cc2)o1 (configuration not stated) -4.14%
Cc1ccc(NC(=O)c2cc3nc(-c4ccc5c(c4)OCO5)cc(C(F)(F)F)n3n2)cc1Cl -7.94%
O=c1c(=O)n(-c2ccccc2)ccn1Cc1cccc(C(F)(F)F)c1 -2.45%
O=C1COc2ccc(-c3cc(-c4ccc(F)cc4)c4c(n3)-c3cc(Cl)ccc3OC4)cc2N1 -0.314%
COc1ccccc1CNS(=O)(=O)c1cc(Br)cc2c1N(C(C)=O)C(C)C2 (configuration not stated) 1.03%
Cc1ccc(N2CC(c3nnc(Cc4ccc(F)cc4)o3)CC2=O)cc1 (configuration not stated) -3.81%
COc1cc(Cl)c(NC(=O)c2cc(CN3CCCC3)on2)c(OC)c1 3.92%
Cc1c(C(=O)Nc2ccccc2Cl)sc2ncnc(N(C)C3CCCCC3)c12 -0.0155%
CCc1ccc(CNC(=O)C2CCCN(c3nnc(C)c4c(C)n(-c5ccc(OC)cc5)nc34)C2)cc1 (configuration not stated) 2.97%
Cc1oc(-c2ccccc2F)nc1CSCC(=O)NCc1ccccc1 -21.2%
Cc1cccc(C)c1NC(=O)CSc1ncc2c(n1)-c1ccc(Cl)cc1N(Cc1ccccc1)S2(=O)=O -13.7%
CC(CCc1ccccc1)NC(=O)Cn1c(=O)nc(-c2ccccc2F)c2cc(Cl)ccc21 (configuration not stated) -10.4%
COc1ccc(Cn2ccnc2SCC(=O)NC2CCCC2)cc1 -12%
CC(C)C[C@@H]1[C@H](c2ccccc2)OC(=O)N1CCCN1CCCCCC1 -5.63%
CC(C)c1ccc(NC(=O)C2CCCN(S(=O)(=O)c3cccc4nsnc34)C2)cc1 (configuration not stated) -12.4%
COc1ccc2c(c1)CC(C(=O)Nc1cccc(C)c1C)CO2 (configuration not stated) -9.92%
COc1cccc(-n2ccnc2SCC(=O)Nc2ccc(Cl)c(Cl)c2)c1 -20.6%
C/C(=C(\CCO)SS/C(CCO)=C(\C)N(C=O)Cc1cnc(C)nc1N)N(C=O)Cc1cnc(C)nc1N 35.1%
COC(=O)c1ccc(NS(=O)(=O)c2c(C)nc3sccn3c2=O)cc1 -6.14%
O=C(CSc1nccn1-c1ccc(Cl)cc1)Nc1cccc2ccccc12 -12.3%
CCOC(=O)Cn1c(=O)n(C2CCCCC2)c2nc(-c3ccc(OCC)cc3)nc(C(N)=O)c21 -6.29%
COc1ccc(C2CC(=O)c3cnc4c(-c5ccccc5)c(C)nn4c3C2)cc1OC (configuration not stated) 3.36%
CSc1ccc(CCNC(=O)c2ccc3c(c2)nc2n3CCCCC2)cc1 -6.17%
COc1ccc(Cl)cc1NC(=O)c1cnc(SC)nc1-c1ccccc1 6.89%
Cc1ccccc1NC(=O)C(=O)NCC1(c2ccccc2)CCCC1 -23%
O=C(CSc1nnc2scc(-c3ccc(Cl)cc3)n12)Nc1cccc(C(F)(F)F)c1 18%
COc1cc(NC(=O)CC(C)S(=O)(=O)c2ccc3c(c2)CCN3C(C)=O)cc(OC)c1OC (configuration not stated) 6.85%
CCOc1ccc(Nc2nc(C)c(NC(=O)c3ccc(C)cc3)c(Nc3ccc(OCC)cc3)n2)cc1 -2.49%
CCN1CCN(c2ncc3c(n2)CCN(Cc2sccc2C)C3)CC1 -23%
COc1ccc(Cl)cc1Nc1nc2ccc(C(=O)c3ccccc3)cc2n2cnnc12 -0.561%
CCOC(=O)Cc1ccc(NC(=O)N2CCc3c(sc4c3CCCC4)C2c2ccc(F)cc2)cc1 (configuration not stated) -5.73%
Cc1ccc(NC(=O)CN(C)S(=O)(=O)c2cccc3cccnc23)cc1F -11.3%
